# Reference: article PMC4336329 (PLoS ONE, 2015)
# Out of some 310,000 compounds screened, about 14,000 (4.5%) showed an effect of 50% or more. The effect is printed as a negative number. The list shows a part of the results.
# Target: human ether-à-go-go-related gene (hERG) potassium channel (human, UniProt Q12809)
# Experiment: primary screen, population patch clamp on CHO cells stably expressing hERG
# 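Also: peak tail current of the secondary pulse compared with the same well before compound.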
# Chain of human ether-à-go-go-related gene (hERG) potassium channel (Q12809 whole entry, looked up): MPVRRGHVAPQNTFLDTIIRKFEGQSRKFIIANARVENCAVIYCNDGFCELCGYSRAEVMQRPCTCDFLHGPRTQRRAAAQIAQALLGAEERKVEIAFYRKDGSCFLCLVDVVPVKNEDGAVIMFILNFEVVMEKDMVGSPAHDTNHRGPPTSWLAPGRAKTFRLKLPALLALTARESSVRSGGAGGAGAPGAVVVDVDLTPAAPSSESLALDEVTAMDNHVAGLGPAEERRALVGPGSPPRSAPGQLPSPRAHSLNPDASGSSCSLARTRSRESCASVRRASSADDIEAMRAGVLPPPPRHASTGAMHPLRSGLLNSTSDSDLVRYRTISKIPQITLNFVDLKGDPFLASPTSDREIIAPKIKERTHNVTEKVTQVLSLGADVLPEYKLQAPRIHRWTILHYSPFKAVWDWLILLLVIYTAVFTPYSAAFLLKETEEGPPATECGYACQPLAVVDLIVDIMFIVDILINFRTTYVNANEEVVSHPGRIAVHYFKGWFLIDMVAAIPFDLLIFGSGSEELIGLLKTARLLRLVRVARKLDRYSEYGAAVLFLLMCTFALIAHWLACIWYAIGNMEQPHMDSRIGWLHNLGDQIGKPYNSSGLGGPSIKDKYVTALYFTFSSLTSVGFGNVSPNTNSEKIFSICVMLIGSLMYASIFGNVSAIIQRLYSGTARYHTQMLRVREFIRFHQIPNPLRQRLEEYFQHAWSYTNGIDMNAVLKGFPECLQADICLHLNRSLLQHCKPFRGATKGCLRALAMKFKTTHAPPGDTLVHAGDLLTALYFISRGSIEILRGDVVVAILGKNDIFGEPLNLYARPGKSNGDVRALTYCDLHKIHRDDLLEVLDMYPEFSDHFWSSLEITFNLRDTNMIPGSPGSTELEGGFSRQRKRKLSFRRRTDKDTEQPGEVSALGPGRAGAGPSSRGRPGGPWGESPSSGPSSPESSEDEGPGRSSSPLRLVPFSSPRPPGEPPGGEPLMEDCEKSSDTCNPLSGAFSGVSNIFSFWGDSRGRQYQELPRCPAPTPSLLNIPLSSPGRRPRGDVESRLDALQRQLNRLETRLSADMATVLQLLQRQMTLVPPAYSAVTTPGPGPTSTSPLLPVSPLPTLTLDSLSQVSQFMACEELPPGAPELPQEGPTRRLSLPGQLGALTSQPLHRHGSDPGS
row,SMILES,"hERG current change (%, negative = inhibition) at 10uM [%]"
1,Cc1ccc2cc(CN(Cc3ccc4c(c3)OCO4)Cc3nnnn3Cc3ccco3)c(=O)[nH]c2c1C,-12.2
2,COc1ccccc1C(=O)N/C(=C\c1cn(C)c2ccccc12)C(=O)NCCCn1ccnc1,3.22
3,COc1ccc(CNC(=O)c2cccs2)cc1,-11.1
4,CCOc1ccc(NC(=O)CSc2nnc(CCNC(=O)c3ccc(OC)cc3)n2CC)cc1,-26.7
5,COc1ccc(S(=O)(=O)NC(N)=NCCc2ccc(OC)c(OC)c2)cc1,8.65
6,Cc1cccc(NC(=S)NNC(=S)NC2CCCCC2)c1C,19.3
7,O=C(CCCCCNC(=O)c1ccccc1Br)N=Nc1c(O)[nH]c2ccccc12,14.9
8,O=C(CNC(=S)NC(=O)c1ccc(Br)o1)c1ccccc1,7.27
9,Cc1cccnc1NC(=O)CCNS(=O)(=O)c1ccc2c(c1)c(=O)n(C)c(=O)n2C,11.9
10,CCOC(=O)c1c(NC(=O)CN2CCOCC2)sc(C(=O)NC)c1C,-0.98
11,CN(C(=O)C1CCC1C(=O)O)c1nc(-c2ccc(Cl)s2)cs1 (stereo not drawn),9.34
12,O=C(c1n[nH]c(=O)c2ccccc12)N1CCOCC1,5.08
13,Cc1ccc(CN(C)Cc2cc(=O)oc3cc(C)c(Cl)cc23)cc1,14.9
14,Brc1ccc(OCCN2CCOCC2)cc1,4.54
15,Clc1ccccc1CSc1ncn(-c2ccccc2)n1,-33.4
16,CCCCNC(=O)[C@@H]1CSC2c3ccccc3C(=O)N21 (stereo partly drawn),13.9
17,COC(=O)C[C@H]1c2cc(F)ccc2S(=O)(=O)N1Cc1ccccc1,-1.3
18,CC(=O)c1ccc(S(=O)(=O)N2CCN(C(=O)c3ccccc3Cc3ccccc3)CC2)cc1,3.86
19,O=C(CCCN1C(=O)S/C(=C\C=C\c2ccccc2)C1=O)Nc1ccc(C(=O)O)cc1,31.5
20,O=C(COC(=O)CNC(=O)c1ccc(Br)o1)Nc1ccccc1OC(F)F,-51.6
21,O=C(NC1CCCC1)C1CC(=O)N(c2ccc(F)c(Cl)c2)C1 (stereo not drawn),1.97
22,O=C(NCCCN1CCOCC1)c1cc(-c2ccccc2F)no1,9.51

row,SMILES,"hERG current change (%, negative = inhibition) at 10uM [%]"
1,Cc1cccc(-c2noc(-c3ccno3)n2)c1,-53
2,CCOC(=O)C1(Cc2ccccc2)CCN(Cc2cnn(C(C)C)c2)CC1,-28.7
3,COc1cc2c(cc1OC)-c1c(OC)c(OC)cc3c1C(C2)N(C)CC3 (stereo not drawn),-5.23
4,Cc1ccc2cc3c(NS(=O)(=O)c4cccc5nonc45)nn(CC(C)C)c3nc2c1,9.9
5,CC(=O)Nc1ccc(C(=O)Nc2ccncc2)cc1,15
6,CCOC(=O)c1c(C)[nH]c(C(=O)OCC(=O)N(CC(C)C)C2CCS(=O)(=O)C2)c1C (stereo not drawn),-17
7,CCn1cnc2c1c(=O)n(CC(=O)NCC(C)C)c(=O)n2Cc1ccccc1,18.1
8,CC(Sc1nc(-c2ccccc2)cs1)C(=O)Nc1ccc(Cl)cn1 (stereo not drawn),9.44
9,O=C(C1CCC1)N1CCN(S(=O)(=O)c2ccccc2)CC1,15.1
10,CN(C)CCCn1c(=S)[nH]c2sc3c(c2c1=O)CCCC3,-6.36
11,COc1ccc(OC)c(N(CC(=O)N2CCCC2)S(C)(=O)=O)c1,7.44
12,COc1ccccc1NC(=O)CNc1ccc(F)c(Cl)c1,-11.7
13,NC(=O)[C@@H]1CCCCNc2c(F)cc([N+](=O)[O-])cc2C(=O)N[C@@H](CC(=O)O)C(=O)N[C@@H](CCC(=O)O)C(=O)N1,16.8
14,Cc1ccc2c(c1)C(C)CC(C)(C)N2C(=O)NC1CCCCC1 (stereo not drawn),-12.5
15,C/C(=N\NC(=O)c1ccc(NS(=O)(=O)c2cccs2)cc1)c1cccs1,5.99
16,CCOC(=O)N1CCC(NC(=O)C2CCCN2C(=O)OCc2ccccc2)CC1 (stereo not drawn),-2.7
17,CC(Oc1ccc(F)cc1)C(=O)Oc1ccc(N(C)S(=O)(=O)c2ccccc2)cc1 (stereo not drawn),16.3
18,Cc1ccc(NC(=O)CN(C)C(=O)c2ccc(NC(=O)CC3SC(N4CCCC4)=NC3=O)cc2)cc1 (stereo not drawn),12.5
19,ON1C2CCCCC2N(O)C1c1ccccc1C(F)(F)F (stereo not drawn),-1.09
20,COc1ccc(/C=C/C(=O)NCc2cccnc2)cc1,7.38
21,Cc1nn(Cc2ccccc2Cl)c(C)c1NC(=O)NC12CC3CC(CC(C3)C1)C2,-1.42
22,Cc1cc(C)n2c(SCC(=O)NCc3ccc4c(c3)OCO4)nnc2n1,14.5

row,SMILES,"hERG current change (%, negative = inhibition) at 10uM [%]"
1,CCN(CC)c1nc2c3c(nc4c(c3c1C#N)CC(=O)N4c1ccc(Cl)cc1)NC(C)=N2,4.82
2,CN1CCN(S(=O)(=O)c2cccc(C(=O)NCCC3=CCCCC3)c2)CC1,-7.54
3,COc1ccc(CCC(=O)Nc2cc(S(=O)(=O)N3CCOCC3)ccc2OC(C)C)cc1,-34.8
4,CC(C)(C)c1ccc(/C=C(\c2nc3ccccc3[nH]2)S(=O)(=O)c2ccccc2)cc1,0.84
5,CN1CCN(c2nc3c(c(=O)[nH]c(=O)n3C)n2Cc2ccccc2)CC1,-25.4
6,C(=C\c1nc(N2CCCC2)c2ccccc2n1)/c1ccccc1,-48.9
7,CCOC(=O)C(O)(CC(=O)Nc1ccc(Cl)cc1Cl)C(F)(F)F (stereo not drawn),5.34
8,Cc1cc(OCC(=O)O)c2ccccc2n1,12.2
9,CC(=O)SC(C[N+](=O)[O-])c1cn(C(C)=O)c2ccccc12 (stereo not drawn),4.89
10,Cc1ccc(-n2nnnc2SCC(=O)N2CC(=O)Nc3ccccc32)cc1,-2.39
11,Cc1ccc(C(=O)/C=C/c2cc(Br)cc(Br)c2O)o1,13.7
12,Cc1ccc(C)c(OCC(=O)Nc2ccccc2N2CCCC2)c1,8.58
13,CC1(c2nnc(Cc3ccccc3)o2)CC(c2c(Cl)cccc2Cl)=NO1 (stereo not drawn),-34.6
14,Cc1cc(C(=O)NC2CC(C)(C)Cc3c2cnn3-c2ccccc2)n[nH]1 (stereo not drawn),-19.2
15,COc1ccc(CCNC(=O)CNCC2CCCO2)cc1OC.O=C(O)C(=O)O (stereo not drawn),14.1
16,Cc1ccc2c(CSc3nncn3C)cc(=O)oc2c1C,13.4
17,COc1ccc(-n2nc3c(c2NC(=O)COc2ccccc2)CS(=O)(=O)C3)cc1,4.95
18,CC1(C)CC(=O)C(C=NCCN2CCN(C(=O)c3ccccc3)CC2)=C(O)C1,2.78
19,Cc1ccccc1C(=O)NC(=S)N(C)CCc1ccccn1,4.3
20,O=C(NCCCN1CCCC1=O)Nc1ccc(Cl)cc1Cl,1.82
21,COCCCNC(=O)Cn1nc(-c2ccccc2OC)ccc1=O,18
22,Cc1cc(Cn2nnc3ccccc32)c(O)c(C(C)(C)C)c1,19.3

row,SMILES,"hERG current change (%, negative = inhibition) at 10uM [%]"
1,C#CCOCCOCCOCCNc1nc(N2CCN(C(=O)Cn3cc(CC(C)O)nn3)CC2)nc(N2CCN(C(=O)[C@H](CCCC[NH3+])n3cc(CCC(=O)O)nn3)CC2)n1.[Cl-] (stereo partly drawn),4.96
2,COCCCN(C(=O)c1ccccc1)c1nc(-c2ccc(OC)cc2)cs1,18.3
3,O=C(Cn1nc(Cl)nc1Cl)c1ccc([N+](=O)[O-])cc1,1.69
4,O=S(=O)(c1ccc(Cl)cc1)N1CCCN(c2ccc(C(F)(F)F)cn2)CC1,-23.3
5,CCOc1ccc2[nH]c(=O)c(CN(Cc3ccccc3)C(=O)N3CCCC3)cc2c1,9.28
6,CN(C)c1ccc(C(=O)Nc2ccc(CN3CCS(=O)(=O)CC3)cc2)cc1,-4.98
7,CC(=O)Cn1ncc(N2CCOCC2)cc1=O,18.6
8,Cc1ccc(NC(=S)NNC(=O)CSc2nnc(-c3ccc(Cl)cc3)n2C2CCCCC2)cc1,-2.98
9,Cc1cc(C(=O)COC(=O)CNC(=O)c2ccc(Cl)c(Cl)c2)c(C)n1Cc1ccco1,20.7
10,CS(=O)(=O)N1CCN=C1SCc1ccccc1,-0.663
11,O=C(Nc1nc2ccccc2[nH]1)c1ccccc1F,-7.16
12,Oc1c(N=NC(=S)Nc2ccccc2F)c2ccccc2n1Cc1cccc(Cl)c1,13.6
13,COC(=O)C1=C(c2cccc(C#N)c2)C[C@@H]2CC[C@H]1N2C(=O)NCCCOC(C)C,5.51
14,Cc1ccc(NC(=O)NCCCCc2ccccc2)cc1,21.8
15,CC(=O)Oc1ccc(-c2cccc(C(=O)NCC(=O)O)c2)cc1,17.9
16,COc1ccc(-c2cc(C(=O)N3CCN(c4ccccn4)CC3)c3ccccc3n2)cc1,-5.51
17,COc1cccc(C(=O)NCCS(=O)(=O)NCc2cccs2)c1,-10.6
18,COC(=O)c1[nH]c2cc(OC)ccc2c1NC(=O)c1nonc1C,-0.509
19,CN(CCOc1ccccc1)CC(=O)Nc1cccc(C#N)c1,-8.09
20,CCC(=O)NC(=S)Nc1ccc(-c2nc3ccc(C)cc3s2)cc1,11.4
21,COc1ccc(NC(=O)/C(C#N)=C\c2ccc(Br)o2)cc1,4.52
